According to article PMC11369174, “Proteome-scale characterisation of motif-based interactome rewiring by disease mutations” (Molecular Systems Biology, 2024):
Results are given in words; binding and its absence hold for the method and conditions named.

By UniProt entry, the sequences of proteins in these tests, tags left out. Residues count along the entry.
UniProt O14936, residues 12-276: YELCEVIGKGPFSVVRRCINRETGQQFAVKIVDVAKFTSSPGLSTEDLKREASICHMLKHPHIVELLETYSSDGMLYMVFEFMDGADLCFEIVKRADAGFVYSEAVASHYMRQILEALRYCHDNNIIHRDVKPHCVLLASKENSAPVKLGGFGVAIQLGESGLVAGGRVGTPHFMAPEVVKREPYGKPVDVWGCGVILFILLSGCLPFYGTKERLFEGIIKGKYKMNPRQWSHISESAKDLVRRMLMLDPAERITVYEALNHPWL
UniProt Q13283, residues 11-133: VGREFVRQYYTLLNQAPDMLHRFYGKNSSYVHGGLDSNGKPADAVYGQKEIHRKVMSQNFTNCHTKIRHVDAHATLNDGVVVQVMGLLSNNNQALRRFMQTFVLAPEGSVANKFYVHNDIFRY

T1: Ras-GTPase-activating protein-binding protein 2 (G3BP2) NTF2 domain (human) (UniProt Q9UN86)
T1 sequence: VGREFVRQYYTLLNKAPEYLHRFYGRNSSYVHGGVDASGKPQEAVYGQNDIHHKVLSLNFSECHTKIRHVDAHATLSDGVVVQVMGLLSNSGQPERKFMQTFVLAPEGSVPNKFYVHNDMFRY


Legend:
Assay in all cases: fluorescence polarisation; displacement: unlabelled peptide titrated onto a complex of FITC-labelled peptide (10 nM) and protein domain (1-2x KD); 50 mM sodium phosphate buffer pH 7.4 (CASK: plus 100 mM NaCl); KD calculated from IC50; technical triplets; both purified
[1] = target: peripheral plasma membrane protein CASK (CASK) kinase domain (human) (UniProt O14936)
[2] = target: T1, Ras-GTPase-activating protein-binding protein 2 (G3BP2) NTF2 domain (human)
[3] = target: Ras-GTPase-activating protein-binding protein 1 (G3BP1) NTF2 domain (human) (UniProt Q13283)

Binder	binding [1]	also measured
DLLTCGQAQMNFPY [BCL11A_(44-56) wild-type peptide]	–	binding [2]: no binding
QQSYLDSGIHSGATTT [CTNNB1_(27-42) wild-type peptide]	–	binding [3]: no binding

Now from value to binder, other results behind:

binding [1]	Binder	also measured
no binding	MSDSWVPNSASGQDPG [FANCA 1-16 wild-type peptide]	–
no binding	YSGDTSPRHLSNVSST [MAPT 717-731 wild-type peptide]	–
